# PubChem BioAssay AID624417 (National Center for Advancing Translational Sciences (NCATS), 2012)
# Values joined by “and” are separate entries in the source; they are usually repeats but may differ in a detail not shown here. Equal values may be shown once. Hit rate of the full screen: of about 410,000 compounds, about 6,400 (1.6%) were called active. Inconclusive results, whose numbers are uncertain, are shown with a selection of clear calls. Calls come from the whole dose curve; as a rule, active = well fitted inhibition curve with a large enough effect; inconclusive = small, poorly fitted or top-dose-only effect; inactive = no such curve, though single readings can be large or run the other way. Potencies of inconclusive entries are doubtful fits and often do not repeat.
# Target: Glucagon-like peptide 1 receptor (Homo sapiens) (UniProt P43220)
# Assay: qHTS of GLP-1 Receptor Inverse Agonists (Inhibition Mode); note: nearly all actives have a fitted effect of over 55% in size
# Conditions: HEK293 GLP-1R CRE-luciferase, luminescence, 24 h, GLP-1R form is constitutively active; activity change, negative = inhibition: at 38.3 µM (top of the series) unless noted
# In short: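 Constitutively active GLP-1R drives a cAMP-responsive luciferase in stably transfected HEK293 cells; test compounds are added after overnight (12 h) attachment and left 24 hr, and signal loss in luminescence marks inhibition.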
# % is set by controls: 0 for no effect and ±100 for the full control effect; potency is the fitted concentration of half-maximal effect; tags give direction and shape of the fitted curve.
# UniProt P43220, sequence (P43220 whole entry, looked up): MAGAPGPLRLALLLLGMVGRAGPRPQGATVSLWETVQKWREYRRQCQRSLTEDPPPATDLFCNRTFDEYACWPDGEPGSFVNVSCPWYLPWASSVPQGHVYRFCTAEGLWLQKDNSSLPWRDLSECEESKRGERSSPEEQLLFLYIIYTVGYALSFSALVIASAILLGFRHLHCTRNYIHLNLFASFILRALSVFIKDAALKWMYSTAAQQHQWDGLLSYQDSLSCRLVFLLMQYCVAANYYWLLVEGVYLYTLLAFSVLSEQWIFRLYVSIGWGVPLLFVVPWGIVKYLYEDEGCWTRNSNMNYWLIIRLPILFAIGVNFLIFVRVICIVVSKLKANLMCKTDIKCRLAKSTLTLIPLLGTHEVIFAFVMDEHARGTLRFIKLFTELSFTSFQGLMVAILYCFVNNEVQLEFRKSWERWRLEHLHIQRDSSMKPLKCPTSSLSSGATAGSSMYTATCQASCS
SMILES,Potency,"activity change, negative = inhibition"
CC(C)(C)NC(=O)C(=O)NNC(=O)c1ccc(C(C)(C)C)cc1,"inconclusive: 7.08 µM [inhibitor, partial curve, poor fit]",
O=C(Nc1ccc2c(c1)C(=O)N(C1CCCCC1)C2=O)C1CCCO1 (configuration not stated),"inconclusive: 10 µM [inhibitor, partial curve, poor fit]",
CCOc1ccc(NC(=O)CN2CCC(n3cnc4cc(F)ccc43)CC2)cc1,"inconclusive: 10 µM [inhibitor, partial curve, poor fit]",
CCOC(=O)Cc1c(C)nc2c(-c3ccccc3OC)c(C)nn2c1C,"inconclusive: 1 µM [inhibitor, partial curve, poor fit]",
O=C(NC(=S)Nc1ccc(N2CCOCC2)cc1)c1cccc([N+](=O)[O-])c1,,inactive: 2.95%
O=C(CSC1=NCCN1)Nc1cccc(C(F)(F)F)c1,,inactive: -18.9% [at 7.66 µM]
COc1ccc(CCNC(=O)Cn2cc(C(=O)c3ccc(Cl)cc3)c(=O)c3ccc(C)nc32)cc1OC,,inactive: 1.55%
CCCCc1c(C)c2ccc(OCC(C)=O)cc2oc1=O,"inconclusive: 14.1 µM [inhibitor, single point]",
CC1CCN(S(=O)(=O)c2ccc3c(c2)N(CC(=O)NCCN2C(C)CCCC2C)C(=O)CS3)CC1 (configuration not stated),"inconclusive: 28.2 µM [inhibitor, single point]",
COc1ccccc1CNC(=O)CN1C(=O)CCc2cc(S(=O)(=O)N3CCCCC3)ccc21,,inactive: -8.8%
COc1ccc(C(=O)NCCn2cc(SCc3cccc(F)c3)c3ccccc32)cc1OC,"inconclusive: 8.91 µM [inhibitor, partial curve, poor fit]",
C/C(=N\NC(=O)c1ccncc1)c1cccc(NC(=O)c2ccc(C(C)(C)C)cc2)c1,"inconclusive: 14.1 µM [inhibitor, single point]",
N#Cc1cccc(C(c2nnnn2C2CCCC2)N2CCCCCC2)c1 (configuration not stated),"inconclusive: 11.2 µM [inhibitor, partial curve, poor fit]",
Cc1nn(-c2ccccc2)c(N)c1Sc1cccc([N+](=O)[O-])c1,"inconclusive: 22.4 µM [inhibitor, single point]",
CN(C)C(=S)N=c1ssc(=S)n1Cc1ccco1,"inconclusive: 0.316 µM [inhibitor, full curve, poor fit]",
COc1cc(C#N)ccc1OCC(=O)Nc1cccc(S(=O)(=O)N(C)c2ccccc2)c1,"inconclusive: 22.4 µM [inhibitor, single point]",
CCN(Cc1ccccc1)C(=O)Cc1c[nH]c2ccccc12,"inconclusive: 10 µM [inhibitor, partial curve, poor fit]",
COCCCN(Cc1ccco1)C(=O)c1cc2c(s1)-c1ccccc1OC2,"inconclusive: 28.2 µM [inhibitor, single point]",
O=C1CC(Sc2nnnn2-c2ccccc2)C(=O)N1c1cccc(Cl)c1 (configuration not stated),"inconclusive: 28.2 µM [inhibitor, single point]",
CCCCCC1CC(CC(=O)Nc2ccc([N+](=O)[O-])cc2)OC1=O (configuration not stated),"inconclusive: 7.94 µM [inhibitor, partial curve, poor fit]",
Cc1ccc(C(C)(C)C)c(OCCOCCN2CCCC2)c1,"inconclusive: 7.94 µM [inhibitor, partial curve, poor fit]",

SMILES,Potency,"activity change, negative = inhibition"
COc1ccccc1NC(=O)Nc1nnc(Cc2ccc(F)cc2)s1,"inconclusive: 2 µM [inhibitor, partial curve, poor fit]",
COc1ccc(/C=N/NC(=O)c2ccc(Cl)cc2Cl)cc1COC(C)=O,"inconclusive: 5.62 µM [inhibitor, partial curve, poor fit]",
CO/N=C/c1ccc(Oc2ccc(C)cc2)c([N+](=O)[O-])c1,"inconclusive: 7.08 µM [inhibitor, partial curve, poor fit]",
CC12CCC(=O)N1C(C(=O)Nc1nc(-c3ccccc3Cl)cs1)CS2 (configuration not stated),"inconclusive: 22.4 µM [inhibitor, single point]",
COc1ccc(-c2nc(SCC(=O)NC3CCCC3)c(-c3ccc(OC)cc3)[nH]2)cc1,"inconclusive: 8.91 µM [inhibitor, partial curve, poor fit] and inconclusive: 10 µM [inhibitor, single point]",
O=C(Nc1cc2c(cc1Cl)-c1ccc([N+](=O)[O-])cc1C2=NO)C(F)(F)F,"inconclusive: 11.2 µM [inhibitor, partial curve, poor fit]",
Cc1ccc(C(=O)Nc2ccc3c(c2)CCC3)cc1,"inconclusive: 10 µM [inhibitor, partial curve, poor fit]",
C=C(C)Cn1c(SCC(=O)Nc2ccccc2C)nc2sc3c(c2c1=O)CCCC3,,inactive: 0.817%
NC(=O)c1cc(S(=O)(=O)Nc2ccc(OC(F)(F)F)cc2)cs1,"inconclusive: 10 µM [inhibitor, partial curve, poor fit]",
COc1ccccc1C(=O)N1CCc2ccccc21,,inactive: 0%
O=C(NCCn1ccc2ccccc21)c1ccc(S(=O)(=O)N2CCCCC2)cc1,"inconclusive: 11.2 µM [inhibitor, single point]",
Cc1c(Cl)cccc1-n1ncc(C(=O)N2CCN(C)CC2)c1C1CCN(C(=O)OC(C)(C)C)CC1,,inactive: 0.425%
COc1ccc(Cl)cc1-c1cc(C(=O)N[C@H](C)c2ccccc2)[nH]n1,"inconclusive: 28.2 µM [inhibitor, single point]",
COc1ccc(-c2nnc(SCc3cc(C)ccc3C)n2N)cc1,"inconclusive: 15.8 µM [inhibitor, single point]",
Cc1ccccc1Oc1ccc2c(c1)[C@@H]1C[C@H](N(C)C(=O)NC3CCCCC3)[C@H]([C@H](C)O)C(=O)N1CC2,"inconclusive: 28.2 µM [inhibitor, single point]",
CCOc1ccc(NC(=O)CCN2CCN(S(=O)(=O)c3cc(Cl)ccc3OC)CC2)cc1,"inconclusive: 28.2 µM [inhibitor, single point]",
O=C(CSc1ncnc2c1oc1ccccc12)Nc1nc2ccccc2s1,"inconclusive: 20 µM [inhibitor, single point]",
C=CCn1c(COc2cccc3ccc(C)nc23)nnc1SCC(=O)O,,inactive: 2.99%
Cn1cccc1-c1cc(C(=O)N/N=C/c2ccc(Cl)cc2)[nH]n1,"inconclusive: 14.1 µM [inhibitor, partial curve, poor fit]",
COCCOC1CCN(C(=O)c2cc(COc3ccc(-n4cncn4)cc3)on2)CC1,,inactive: 8.46%
c1ccc(OCc2noc(CN3CCC(C4CCCCC4)C3)n2)cc1 (configuration not stated),"inconclusive: 12.6 µM [inhibitor, single point]",

SMILES,Potency,"activity change, negative = inhibition"
CC1Oc2ccccc2C=C1/C=N/NC(=O)c1ccccc1O (configuration not stated),"inconclusive: 10 µM [inhibitor, single point]",
CCOc1ccccc1NC(=O)Cn1c(C)cc(COC)c(C#N)c1=O,"inconclusive: 20 µM [inhibitor, single point]",
COC(=O)C1C(=O)c2c([nH]c(C(=O)OC3CCCC3C)c2C)CC1C (configuration not stated),"inconclusive: 11.2 µM [inhibitor, partial curve, poor fit]",
CC(C)c1ccccc1NC(=O)CNCCOc1ccccc1F,"inconclusive: 3.55 µM [inhibitor, partial curve, poor fit]",
COCCNc1nc(-c2ccccc2CO)c2sc(-c3ccccc3)cc2n1,"inconclusive: 1.26 µM [inhibitor, full curve, poor fit]",
CCn1c(O)c(N=NC2=NC(=O)CS2)c2ccccc21,,inactive: 7.85%
COc1ccc(C2(c3ccc(OC)cc3)NC(=O)N(CC(=O)Nc3ccccc3C(F)(F)F)C2=O)cc1,"inconclusive: 7.94 µM [inhibitor, partial curve, poor fit]",
COc1ccccc1NCC(=O)Nc1cc(S(=O)(=O)N2CCOCC2)ccc1N1CCOCC1,,inconclusive: -32.8% [inhibitor] [at 0.307 µM]
Cc1cccc(C)c1NC(=O)CN1C(=O)CCSc2ccc(S(=O)(=O)N3CCCC3)cc21,inactive,
Cc1cccc(NC(=O)c2nc[nH]c2C(=O)NCC(=O)OC(C)(C)C)c1,"inconclusive: 28.2 µM [inhibitor, single point]",
CC(=O)Nc1ccc(NC(=S)Nc2ccccc2)cc1,,inactive: 0%
CC(C)C(C)NC(=O)CSc1nc2scc(-c3ccco3)c2c(=O)n1-c1ccccc1 (configuration not stated),"inconclusive: 3.16 µM [inhibitor, full curve]",
CCn1c2c(c(=N)c3c1CCC3)CCC2,,inactive: 0.206%
Cc1ccc(C(=O)NCCc2c[nH]c3ccccc23)c(C)c1,"inconclusive: 28.2 µM [inhibitor, single point]",
CC1=NN(C(=O)c2ccc(Br)cc2)C(O)(c2ccccc2)C1 (configuration not stated),active: 1.12 µM,
CN(CC(=O)Nc1cccc(S(=O)(=O)N2CCCC2)c1)CC(=O)Nc1ccc(Cl)c(C(F)(F)F)c1,"inconclusive: 8.91 µM [inhibitor, partial curve, poor fit]",
CCN(Cc1nc(-c2cccc(C)c2)no1)S(=O)(=O)c1ccc(C)cc1,"inconclusive: 10 µM [inhibitor, single point]",
COc1ccc(C(=O)Nc2ccc(-n3nncc3C(C)(C)C)cc2)cc1,"inconclusive: 10 µM [inhibitor, partial curve, poor fit]",
Cc1ccnc(NC(=O)C2CCN(S(=O)(=O)c3cccc(C(F)(F)F)c3)CC2)c1,"inconclusive: 31.6 µM [inhibitor, partial curve, poor fit]",
Cc1cccc(NC(=O)C(C)OC(=O)c2ccccc2NS(=O)(=O)c2cc(C)c(C)c([N+](=O)[O-])c2)c1 (configuration not stated),"inconclusive: 22.4 µM [inhibitor, single point]",
